PubChem BioAssay AID2060885 (Molecular Pharmacology Branch, DTP, NCI, 2025)
The source holds more than one record for some entries. This is not the full list of results. An entry can have further records. Results that share an entry are repeated measurements in other runs, samples, wells, individuals or studies.

System: NCI-H23 complex spheroids with HUVEC/MSC, viability
Assay: Anticancer human tumor NCI-H23 cell line growth inhibition [RAS];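 further: spheroids exposed to compound for 7 days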;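 on viability, T/C: 100% = DMSO vehicle control viability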
Details: for IC50: compound alone; for viability, T/C: stronger effect = lower value
Source text: RAS pathway inhibitors in Combinations in Complex Spheroids
A high-throughput screen of multi-cell type tumor spheroids was designed to identify active combinations of RAS pathway inhibitors and targeted small molecules. Complex spheroids include a stromal component modeled by human endothelial cells (HUVEC) and fibroblasts modeled by human mesenchymal stem cells (MSCs). The concentration ranges selected for each drug and investigational agent were based upon clinically achievable concentrations if the clinical Cmax of the agent was known.
Compounds. The drugs and investigational agents: abemaciclib (NSC768073), cobimetinib (NSC768068), divarasib (GDC6063, NSC841802), docetaxel (NSC628503), GDC-1971 (RLY-1971, NSC841576), gemcitabine (NSC613327), inavolisib (NSC800729), ipatasertib (NSC767898), KB-0742 (NSC834161), MRTX-1133 (NSC836407), osimertinib (NSC779217), RMC-4630 (NSC839698), RMC-6236 (NSC851965), RMC-6291 (NSC852671), Ro-3306 (NSC812927), sapanisertib (NSC764658), SN-38 (NSC673596), staurosporine (NSC755774), SY5609 (NSC837396), and tovorafenib (DAY101, NSC766906), were obtained from the National Cancer Institute (NCI) Developmental Therapeutics Program Chemical Repository. The FDA-approved anticancer drug set is available from the NCI Developmental Therapeutics Program. […] The stock solutions were prepared in dimethyl sulfoxide (DMSO, Sigma-Aldrich, St. Louis, MO, cat. D2650) at 800-fold the tested concentration and stored at -70 degrees C prior to their use. All drugs and investigational agents were tested over a range starting from a high concentration at or near the clinical Cmax and decreasing in half-log increments. If the clinical Cmax for an agent had not been determined, the highest concentration tested was 10 microM.
Cell Culture. All cells were maintained in an incubator at 37 degrees C and 5% CO2 with 95% humidity. The PDC lines were cultured according to standard operating procedures established by the NCI PDMR. All PDCs were thawed and cultured in Matrigel-coated flasks prepared with a working solution of 1X Ham's F-12 nutrient mix, without supplementation (Invitrogen, Waltham, MA, cat. 11765054), 100 U/mL penicillin-streptomycin (Invitrogen, cat. 15140122), and 2.5% Matrigel (Corning Inc., Corning, NY, cat. 354248) for the first three passages. The 362531-283-R-J2-PDC and 782815-120-R-J1-PDC lines were cultured in 6C/Colon 1B media, which includes advanced DMEM/F-12 (Thermo Fisher Scientific, cat. 12634028), 10 mM HEPES (Thermo Fisher Scientific, cat. 15630080), 1X GlutaMAX supplement (Thermo Fisher Scientific, cat. 35050061), 0.1 mg/mL primocin (InvivoGen, San Diego, CA, cat. ant-pm-2), 10% defined fetal bovine serum, heat inactivated (HyClone Laboratories Inc., Logan, UT, cat. SH30070.03HI), 50% L-WRN conditioned media (ATCC, cat. CRL-3276), 1.25 mM N-Acetyl-L-cysteine (Sigma-Aldrich, cat. A9165), 10 mM nicotinamide (Sigma-Aldrich, cat. N0636), 1X B-27 supplement (Thermo Fisher Scientific, cat. 17504044), 1X N-2 supplement (Thermo Fisher Scientific, cat. 17502048), 50 ng/mL human EGF (Thermo Fisher Scientific, cat. PHG0311), and 10 microM Y-27632 dihydrochloride (Tocris Bioscience, cat. 1254). The K12877-001-R-J1-PDC line was cultured in 6I media, which includes all 6C/Colon 1B media plus 10 ng/mL human FGF-10 (PeproTech, cat. 100-26), 1 ng/mL human FGF-2 (PeproTech, cat. 100-18B), 1 µM prostaglandin E2 (Tocris Bioscience, cat. 2296), […] hydrocortisone (Sigma-Aldrich, cat. H4001), and […] bovine insulin (Sigma-Aldrich, cat. I6634). The K86415-001-R-J1-PDC line was cultured in 6D media, which includes all 6C/Colon 1B media components minus the L-WRN conditioned media. The 485176-168-R4-J1-PDC was cultured in PANC media, which includes all 6C/Colon 1B media plus 100 ng/mL human FGF-10 (PeproTech, cat. 100-26), 500 nM SB-431542 (Selleckchem, cat. S1067), and 10 nM gastrin (Tocris Bioscience, cat. 3006). […]

## NC1c2ccccc2OC12CCN(c1cnc3c(N4CCCc5ncccc54)n[nH]c3n1)CC2 (centres undefined)
  IC50: 74.2, 123, 241, 268 nM

## CCn1c(-c2cccnc2C(C)OC)c2c3cc(ccc31)N1CCOC(CC(NC(=O)C(C(C)C)N(C)C(=O)C3(F)CCN(C(=O)C#CC(C)(C)N(C)C)CC3)C(=O)N3CCCC(N3)C(=O)OCC(C)(C)C2)C1 (centres undefined)
Compound alone 0.003 µM
  viability, T/C: 30.1, 28.2, 30.2, 30.3, 112, 28.4, 33, 30.7%

## CC1(O)CCCC1n1c(=O)c(C(F)F)cc2cnc(NC3CCN(S(C)(=O)=O)CC3)nc21 (centres undefined)
Compound alone 0.1 µM
  viability, T/C: 85.6, 79, 64.7, 60%

## CCN1CCN(Cc2ccc(Nc3ncc(F)c(-c4cc(F)c5nc(C)n(C(C)C)c5c4)n3)nc2)CC1
Compound alone 1 µM
  viability, T/C: 42.4, 46.1, 60.7, 69.1%

## C[C@@H](NC(=O)c1ncnc(N)c1Cl)c1ncc(C(=O)Nc2cc(C(F)(F)F)c(Cl)cn2)s1
Compound alone 10 µM
  viability, T/C: 55.4, 50.9, 73.8, 82.6%

## O=C(c1ccc(F)c(F)c1Nc1ccc(I)cc1F)N1CC(O)([C@@H]2CCCCN2)C1
Compound alone 0.00316 µM
  viability, T/C: 93.1, 88.6, 106, 115%
Compound alone 0.01 µM
  viability, T/C: 87.4, 78.8, 94.4, 105%

## Cc1nc(N2CCC3(CC2)COC(C)C3N)c(CO)nc1Sc1ccnc(N)c1Cl (centres undefined)
  IC50: 1.23 µM, 2.1 µM, > 10 µM, 7.17 µM
Compound alone 0.1 µM
  viability, T/C: 73.8, 97.5, 102, 93.5%

## C=CC(=O)Nc1cc(Nc2nccc(-c3cn(C)c4ccccc34)n2)c(OC)cc1N(C)CCN(C)C
Compound alone 0.1 µM
  viability, T/C: 109, 121, 89.8, 103%
Compound alone 1 µM
  viability, T/C: 84.3, 89, 111, 97.3%

## CC(C)n1nc(-c2ccc3oc(N)nc3c2)c2c(N)ncnc21
Compound alone 0.001 µM
  viability, T/C: 102, 90, 110, 116%

## CC1(C)CCC(Nc2ncc(C(F)(F)F)c(-c3c[nH]c4c(P(C)(C)=O)c(C#N)ccc34)n2)CN1 (centres undefined)
  IC50: 9.07 nM, 18.2 nM, 33.9 nM, > 300 nM

## CC(C)NCC(C(=O)N1CCN(c2ncnc3c2C(C)CC3O)CC1)c1ccc(Cl)cc1 (centres undefined)
Compound alone 10 µM
  viability, T/C: 48.1, 49.4, 76.5, 60.1%
